Laboratory results taken from the supplement of paper PMC4967469.
pIC50: −log10 of the molar value. The IC50 comes from the fitted curve, where viability falls to half of the control; a fit beyond the top or the lowest dose is shown as a bound at that dose. For AUC the same curve is integrated over the 256-fold range of doses and scaled to a fraction; it is 1 without any effect and falls as sensitivity rises. Any top dose called inferred was calculated from the reported fits.

Compound: CCCCCCCCCCCC1=C(O)C(=O)C=C(O)C1=O [Embelin]
Assay: Viability of human cancer cell lines after 72 h of drug (GDSC screen)
Settings: top dose 32 µM; top dose inferred
Protocol: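 Human cancer cell lines in 384-well plates, medium with 10% serum, drug for 72 h over a 256-fold dose range (nine 2-fold or five 4-fold steps up to the top dose). Adherent lines were fixed and stained with the nucleic acid dye Syto60, suspension lines read with resazurin; signal relative to control wells, capped at 0 and 100%. One two-parameter sigmoid per drug and line, fitted in a mixed model over all curves with the slope shared within a line.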

| Cell Line | AUC | pIC50 |
| --- | --- | --- |
| RF-48 (stomach, adherent) | 0.788 | 4.80 |
| RH-1 (rhabdomyosarcoma, adherent) | 0.801 | 4.90 |
| RH-41 (rhabdomyosarcoma, adherent) | 0.796 | 4.91 |
| RKN (ovary, adherent) | 0.836 | 4.64 |
| RKO (large intestine, adherent) | 0.608 | 5.41 |
| RL (B-cell lymphoma, suspension) | 0.968 | < 4.49 |
| RMG-I (ovary, adherent) | 0.749 | 4.92 |
| RO82-W-1 (thyroid, adherent) | 0.886 | < 4.49 |
| ROS-50 (B-cell leukaemia, suspension) | 0.952 | < 4.49 |
| RPMI-2650 (head and neck, adherent) | 0.708 | 5.09 |
| RPMI-6666 (Hodgkin lymphoma, suspension) | 0.725 | 5.00 |
| RPMI-7951 (melanoma, adherent) | 0.861 |  |
| RPMI-8226 (myeloma, suspension) | 0.802 | 4.87 |
| RPMI-8402 (T-cell lymphoblastic leukaemia, suspension) | 0.626 | 5.38 |
| RPMI-8866 (chronic myeloid leukaemia, suspension) | 0.747 | 5.02 |
| RS4-11 (leukaemia, suspension) | 0.771 | 4.95 |
| RT4 (bladder, adherent) | 0.931 | < 4.49 |
| RT-112 (bladder, adherent) | 0.735 | 5.00 |
| RVH-421 (melanoma, adherent) | 0.732 | 4.92 |
| RXF393 (kidney, adherent) | 0.859 | < 4.49 |
| Raji (Burkitt lymphoma, suspension) | 0.741 | 5.03 |
| Ramos-2G6-4C10 (Burkitt lymphoma, suspension) | 0.831 | 4.79 |
| SAS (head and neck, adherent) | 0.82 | 4.68 |
| SAT (head and neck, adherent) | 0.821 | < 4.49 |
| SBC-1 (small cell lung carcinoma, suspension) | 0.895 | < 4.49 |
| SBC-3 (small cell lung carcinoma, adherent) | 0.711 | 5.13 |

| Cell Line | AUC | pIC50 |
| --- | --- | --- |
| SBC-5 (small cell lung carcinoma, adherent) | 0.859 | 4.72 |
| SCC90 (head and neck, adherent) | 0.836 | < 4.49 |
| SCC-3 (B-cell lymphoma, suspension) | 0.889 | 4.72 |
| SCC-4 (head and neck, adherent) | 0.793 | 4.75 |
| SCC-9 (head and neck, adherent) | 0.862 | < 4.49 |
| SCC-15 (head and neck, adherent) | 0.691 | 5.08 |
| SCC-25 (head and neck, adherent) | 0.869 | < 4.49 |
| SCH (stomach, adherent) | 0.837 | 4.62 |
| SF126 (glioma, adherent) | 0.761 | 4.92 |
| SF268 (glioma, adherent) | 0.693 | 5.14 |
| SF295 (glioma, adherent) | 0.594 | 5.43 |
| SF539 (glioma, adherent) | 0.815 | 4.82 |
| SH-4 (melanoma, adherent) | 0.754 | 4.77 |
| SHP-77 (small cell lung carcinoma, semi-adherent) | 0.938 | < 4.49 |
| SIG-M5 (acute myeloid leukaemia, suspension) | 0.432 | 5.86 |
| SIMA (neuroblastoma, adherent) | 0.683 | 5.15 |
| SISO (cervix, adherent) | 0.769 | 4.94 |
| SJRH30 (rhabdomyosarcoma, adherent) | 0.728 | 5.04 |
| SJSA-1 (bone, adherent) | 0.629 | 5.32 |
| SK-CO-1 (large intestine, adherent) | 0.811 | 4.80 |
| SK-ES-1 (Ewing sarcoma, semi-adherent) | 0.749 | 4.96 |
| SK-HEP-1 (liver, adherent) | 0.771 | 4.94 |
| SK-LMS-1 (soft tissue, adherent) | 0.681 | 5.21 |
| SK-LU-1 (lung adenocarcinoma, adherent) | 0.705 | 5.05 |
| SK-MEL-1 (melanoma, suspension) | 0.938 | < 4.49 |
| SK-MEL-2 (melanoma, adherent) | 0.786 | 4.84 |

| Cell Line | AUC | pIC50 |
| --- | --- | --- |
| SK-MEL-3 (melanoma, adherent) | 0.808 | 4.70 |
| SK-MEL-24 (melanoma, adherent) | 0.609 | 5.37 |
| SK-MEL-28 (melanoma, adherent) | 0.675 | 5.22 |
| SK-MEL-30 (melanoma, adherent) | 0.773 | 4.88 |
| SK-MES-1 (lung squamous cell carcinoma, adherent) | 0.649 | 5.27 |
| SK-MM-2 (myeloma, suspension) | 0.938 | < 4.49 |
| SK-N-AS (neuroblastoma, adherent) | 0.795 | 4.75 |
| SK-N-DZ (neuroblastoma, adherent) | 0.843 | 4.65 |
| SK-N-FI (neuroblastoma, adherent) | 0.972 | < 4.49 |
| SK-N-SH (neuroblastoma, adherent) | 0.612 | 5.39 |
| SK-OV-3 (ovary, adherent) | 0.729 |  |
| SK-PN-DW (Ewing sarcoma, adherent) | 0.889 | < 4.49 |
| SK-UT-1 (soft tissue, adherent) | 0.656 | 5.28 |
| SKG-IIIa (cervix, adherent) | 0.883 | < 4.49 |
| SKN (uterus, adherent) | 0.777 | 4.80 |
| SKN-3 (head and neck, adherent) | 0.846 | 4.52 |
| SLVL (B-cell lymphoma, suspension) | 0.745 | 4.97 |
| SN12C (kidney, adherent) | 0.857 | 4.51 |
| SNB75 (glioma, adherent) | 0.807 | 4.57 |
| SNG-M (endometrium, adherent) | 0.627 | 5.35 |
| SNU-182 (liver, adherent) | 0.681 | 5.18 |
| SNU-387 (liver, adherent) | 0.861 | < 4.49 |
| SNU-398 (liver, adherent) | 0.722 | 5.06 |
| SNU-423 (liver, adherent) | 0.772 | 4.84 |
| SNU-449 (liver, adherent) | 0.822 | 4.68 |
| SNU-475 (liver, adherent) | 0.965 | < 4.49 |

| Cell Line | AUC | pIC50 |
| --- | --- | --- |
| SNU-C1 (large intestine, suspension) | 0.772 | 4.73 |
| SNU-C2B (large intestine, adherent) | 0.916 | < 4.49 |
| SR (lymphoid neoplasm, suspension) | 0.854 | 4.67 |
| ST486 (Burkitt lymphoma, suspension) | 0.74 | 5.05 |
| STS-0421 (soft tissue, adherent) | 0.922 | < 4.49 |
| SU8686 (pancreas, adherent) | 0.826 | 4.64 |
| SU-DHL-1 (anaplastic large cell lymphoma, suspension) | 0.963 | < 4.49 |
| SU-DHL-4 (B-cell lymphoma, suspension) | 0.711 | 5.19 |
| SU-DHL-5 (B-cell lymphoma, suspension) | 0.522 | 5.64 |
| SU-DHL-6 (B-cell lymphoma, suspension) | 0.928 | 4.54 |
| SU-DHL-8 (B-cell lymphoma, suspension) | 0.604 | 5.42 |
| SU-DHL-16 (B-cell lymphoma, suspension) | 0.827 | 4.89 |
| SUIT-2 (pancreas, adherent) | 0.723 | 5.05 |
| SUP-B15 (lymphoblastic leukaemia, suspension) | 0.625 | 5.36 |
| SUP-HD1 (Hodgkin lymphoma, suspension) | 0.952 | < 4.49 |
| SUP-M2 (anaplastic large cell lymphoma, suspension) | 0.621 | 5.40 |
| SUP-T1 (T-cell lymphoblastic leukaemia, suspension) | 0.687 | 5.20 |
| SW13 (adrenal gland, adherent) | 0.786 | 4.85 |
| SW48 (large intestine, adherent) | 0.792 | 4.84 |
| SW156 (kidney, adherent) | 0.76 | 4.91 |
| SW620 (large intestine, adherent) | 0.877 | 4.59 |
| SW626 (ovary, adherent) | 0.736 | 4.96 |
| SW684 (fibrosarcoma, adherent) | 0.886 | < 4.49 |
| SW756 (cervix, adherent) | 0.781 | 4.80 |
| SW780 (bladder, adherent) | 0.767 | 4.89 |
